# Data taken from the supplement of paper PMC7826260.
# The list shows a part of the results. Each Rep nickase domain was tested in vitro on the same pool of single strands at 3 µM enzyme and 37 °C for 1 h; the strands have 90 letters, of which the middle is given. Values are log2 of uncut reads against the no-enzyme pool; more negative means more cut, near 0 not cut, and no call is made. Because reads are shares of a total, they shift together; where an enzyme cuts many sequences, the uncut ones exceed 0.
# What was measured:
# Test in all cases: uncleaved DNA left, log2 of reads against the no-enzyme library (log2 ratio); higher = less cleavage (more negative = more Rep cleavage of the k-mer); sequences stand for … in CTCGTCCG…ACCGGAGA
# [1] = test system: T1, Rep nickase domain of Muscovy duck circovirus
# T1 sequence (Rep 1-111, printed without the tag): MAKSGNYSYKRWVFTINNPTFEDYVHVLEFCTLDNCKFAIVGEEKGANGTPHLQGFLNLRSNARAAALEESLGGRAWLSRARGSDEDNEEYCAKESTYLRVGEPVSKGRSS
# Procedure: (§1)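 A pool of 90-nt single-stranded DNAs with seven random bases just before the constant AC of the nick site (name = the seven bases) was cut by 3 µM recombinant His6-SUMO-tagged Rep nickase domain (300 nM DNA, 50 mM HEPES pH 8.0, 50 mM NaCl, 1 mM MnCl2, 1 h, 37 °C, three replicates). Uncut DNA was amplified and sequenced.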
# [2] = test system: T2, Rep nickase domain of banana bunchy top virus
# T2 sequence (Rep 1-94, printed without the tag): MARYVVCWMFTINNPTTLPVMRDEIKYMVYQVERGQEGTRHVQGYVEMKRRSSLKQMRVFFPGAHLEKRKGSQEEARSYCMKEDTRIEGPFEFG
# Procedure: as §1
# [3] = test system: T3, Rep nickase domain of cabbage leaf curl virus
# T3 sequence (Rep 1-116, printed without the tag): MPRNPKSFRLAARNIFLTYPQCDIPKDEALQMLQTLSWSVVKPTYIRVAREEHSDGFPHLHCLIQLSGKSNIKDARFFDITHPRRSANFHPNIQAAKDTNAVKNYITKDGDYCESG
# Procedure: as §1
# [4] = test system: T4, Rep nickase domain of chickpea chlorotic dwarf virus
# T4 sequence (Rep 1-124, printed without the tag): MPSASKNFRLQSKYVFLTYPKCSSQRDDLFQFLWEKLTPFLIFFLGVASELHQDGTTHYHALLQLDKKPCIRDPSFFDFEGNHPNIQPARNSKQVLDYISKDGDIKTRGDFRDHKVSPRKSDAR
# Procedure: as §1
# [5] = test system: T5, Rep nickase domain of faba bean necrotic yellows virus
# T5 sequence (Rep 1-98, printed without the tag): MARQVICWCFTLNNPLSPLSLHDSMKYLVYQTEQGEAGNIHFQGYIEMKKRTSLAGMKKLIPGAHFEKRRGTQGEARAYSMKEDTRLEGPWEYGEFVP
# Procedure: as §1
# [6] = test system: T6, Rep nickase domain of maize striate mosaic virus
# T6 sequence (Rep 1-117, printed without the tag): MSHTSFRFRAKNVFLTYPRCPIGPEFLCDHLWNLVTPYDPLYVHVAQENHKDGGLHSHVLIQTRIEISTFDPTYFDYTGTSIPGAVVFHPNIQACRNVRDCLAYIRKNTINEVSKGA
# Procedure: as §1
# [7] = test system: T7, Rep nickase domain of porcine circovirus 2
# T7 sequence (Rep 2-116, printed without the tag): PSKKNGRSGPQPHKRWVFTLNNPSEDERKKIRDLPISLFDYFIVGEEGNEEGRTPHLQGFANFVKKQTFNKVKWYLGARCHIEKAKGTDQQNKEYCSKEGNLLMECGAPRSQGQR
# Procedure: as §1
# [8] = test system: T8, Rep nickase domain of tomato yellow leaf curl virus
# T8 sequence (Rep 1-136, printed without the tag): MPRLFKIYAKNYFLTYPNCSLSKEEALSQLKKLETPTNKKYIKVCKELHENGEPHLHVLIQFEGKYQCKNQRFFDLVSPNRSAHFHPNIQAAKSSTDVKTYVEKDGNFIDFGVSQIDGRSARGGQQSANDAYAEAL
# Procedure: as §1
# [9] = test system: T9, Rep nickase domain of wheat dwarf virus
# T9 sequence (Rep 1-137, printed without the tag): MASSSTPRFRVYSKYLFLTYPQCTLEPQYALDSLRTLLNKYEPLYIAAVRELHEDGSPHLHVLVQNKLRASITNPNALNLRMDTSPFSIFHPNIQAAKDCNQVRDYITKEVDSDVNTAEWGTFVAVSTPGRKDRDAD
# Procedure: as §1
Sequence,uncleaved DNA left (log2) [1],uncleaved DNA left (log2) [2],uncleaved DNA left (log2) [3],uncleaved DNA left (log2) [4],uncleaved DNA left (log2) [5],uncleaved DNA left (log2) [6],uncleaved DNA left (log2) [7],uncleaved DNA left (log2) [8],uncleaved DNA left (log2) [9]
TTACGTT,0.107,-0.0252,-0.899,-2.84,-0.054,-0.721,-0.343,-0.0556,-0.584
CAAAAAA,0.0436,0.0389,0.0484,-0.686,0.0986,-0.65,0.15,0.0249,0.00181
GCGGCGA,-0.0726,-0.0251,-0.401,-0.207,0.0162,-0.325,0.0575,-0.0192,-0.218
CTTATAT,0.031,0.059,0.12,-0.821,0.101,-0.678,-0.14,0.188,0.234
ATTTGTC,0.0482,-0.133,-0.316,-0.556,0.0689,-1.26,0.0895,-0.0253,-0.0606
TGATCGC,0.0689,-0.0695,-0.353,-0.654,0.0555,-1,0.0854,0.00296,-0.0691
GCGATCC,0.0712,-0.105,-0.0422,0.308,-0.168,0.00191,0.00771,0.00779,-0.0237
AATTCTT,-3.28,-3.64,-1.39,-2.84,-0.6,-0.735,-4.45,-0.0594,-0.512
TACTCAT,-2.44,-1.02,-0.771,-2.79,-0.044,-0.341,-3.85,-0.0706,-0.0875
TAATGCC,-0.0481,-0.042,-3.59,-2.9,0.0235,-2.61,-0.107,-0.0334,-2.12
GAACAGG,0.0228,-0.0427,0.512,1.21,0.00914,1.31,0.105,-0.0343,0.109
CTCCAGT,-0.0224,0.0251,-0.182,-0.876,-0.141,-0.861,-0.231,0.105,-0.0176
AGGTGAC,-0.0209,-0.0356,0.456,1.33,0.00855,1.25,0.154,0.0346,0.0513
GTCTTGG,0.107,0.127,0.363,0.845,0.0987,1.6,0.287,0.174,0.157
CGAAACC,-0.0141,-0.0643,0.0137,-0.64,-0.0326,-0.522,-0.489,0.0143,0.0713
GTCGTTC,0.0308,0.0635,0.384,0.776,0.000902,1.64,0.0685,0.0806,0.09
AATAAAG,0.0323,-0.0188,-0.781,-0.37,0.0744,-1.2,0.181,0.0551,-0.0532
CTATGAC,0.18,0.00757,0.0625,0.158,0.155,-0.611,0.0649,0.0566,-0.0331
ATCAAAT,-0.0316,0.086,0.0868,-0.572,-0.0958,-0.515,0.0636,-0.0192,-0.00336
TCTCGCT,0.0353,-0.218,-0.356,-1.32,-0.00364,-1.18,-0.142,-0.0612,-0.195
TGCTCTA,-0.046,-0.0586,-0.0578,-0.712,-0.118,-0.352,-0.388,-0.144,-0.167
GGAAAGC,0.0155,0.0407,0.791,1.79,-0.00327,1.98,0.225,-0.0216,0.124
CCACTTA,0.0443,-0.00318,0.0282,-1.47,0.162,-0.466,-0.00109,0.0589,0.102
CCGACAC,0.139,0.091,0.104,0.385,0.196,-0.191,0.135,0.0693,0.221
GACTTAA,0.0761,0.0464,0.249,0.485,0.0803,0.911,-0.744,0.097,0.164
ATAGGCC,0.0516,-0.067,-0.0041,0.266,-0.0658,-0.355,-0.0847,0.0217,0.0442
CCGTACT,-2.81,-0.958,-1.91,-2.44,-2.49,-0.521,-3.06,-0.276,-2.48
GCATAGA,0.0398,0.045,-0.111,0.13,0.0456,-0.694,0.191,0.0443,0.00964
CGTAGAG,-0.164,0.00204,-0.623,-0.479,-0.113,-1.05,0.122,0.0443,-0.0654
CCAAAGT,-0.0544,-0.0252,-0.11,-0.574,-0.0368,-0.993,-0.0157,0.00454,-0.0202
